# Measurements reported in PubChem BioAssay AID588342 (National Center for Advancing Translational Sciences (NCATS), 2011).
# Among all 360,000 compounds or so, about 25,000 (6.9%) were called active. The shares of active, inactive and inconclusive entries below differ from those in the screen. Calls follow the shape of the dose curve; as a rule, active = well fitted inhibition curve with a large enough effect; inconclusive = small, poorly fitted or top-dose-only effect; inactive = flat fitted curve, though single readings scatter. Potencies of inconclusive entries are doubtful fits and often do not repeat.
# Target: Luciferin 4-monooxygenase (Photinus pyralis) (UniProt P08659)
# Test: qHTS profiling assay for firefly luciferase inhibitor/activator using purifed enzyme and Km concentrations of substrates (counterscreen for miR-21 project); also: nearly all actives have a fitted effect of over 55% in size;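 as to activity change, negative = inhibition: plate controls were vehicle for no effect and reference inhibitor for full effect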
# Details: purified FLuc, luminescence inhibition; activity change, negative = inhibition: at 57.5 µM (top of the series)
# How it was run: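 Purified P. pyralis luciferase (10nM final) with 10uM D-luciferin and 10uM ATP (Km levels) in 50mM Tris acetate pH 7.5, 10mM Mg acetate, 0.01% Tween-20, 0.05% BSA; qHTS 6-point titration, ~60 µM downward; luminescence read.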
# Potency is read from the fitted curve at half-maximal effect; tags tell the direction and shape of the fitted curve.
# Sequence of UniProt P08659 (P08659 whole entry, looked up): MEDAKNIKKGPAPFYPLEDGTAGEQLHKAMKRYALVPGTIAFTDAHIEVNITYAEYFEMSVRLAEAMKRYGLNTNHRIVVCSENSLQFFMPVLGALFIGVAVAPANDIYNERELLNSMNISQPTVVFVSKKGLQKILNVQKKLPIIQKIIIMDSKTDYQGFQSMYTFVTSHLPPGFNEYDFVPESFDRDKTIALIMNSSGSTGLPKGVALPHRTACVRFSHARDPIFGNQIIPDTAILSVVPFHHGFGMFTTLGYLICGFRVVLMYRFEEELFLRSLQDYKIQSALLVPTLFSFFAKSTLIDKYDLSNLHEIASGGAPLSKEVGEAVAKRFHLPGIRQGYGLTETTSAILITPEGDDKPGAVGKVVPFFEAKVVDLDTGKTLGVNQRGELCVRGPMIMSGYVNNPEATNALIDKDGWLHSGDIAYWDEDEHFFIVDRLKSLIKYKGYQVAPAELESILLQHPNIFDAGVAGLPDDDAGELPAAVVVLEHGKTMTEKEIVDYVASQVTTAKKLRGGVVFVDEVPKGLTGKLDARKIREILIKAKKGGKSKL
Structure (SMILES),Potency,"activity change, negative = inhibition"
Cc1ccnc(NS(=O)(=O)c2ccc(NC(=O)c3ccc4c(c3)OCCO4)cc2)n1,"inconclusive: 23.9 µM [inhibitor, partial curve]",–
CC1Cc2cc(S(=O)(=O)CCC(=O)NC3CCCCC3)ccc2N1C(=O)C1CC1 (stereo unspecified),–,inactive: -0.785%
CCOc1cccc(/C=N/NC(=S)Nc2cc(S(=O)(=O)N3CCOCC3)ccc2N2CCOCC2)c1O,"inconclusive: 15.1 µM [inhibitor, partial curve, poor fit]",–
COC(=O)c1ccccc1-n1cccc1C(=O)NP(=O)(N1CCOCC1)N1CCOCC1,–,inactive: 12.3%
CCOC(=O)c1cnc2c(cnn2C)c1NCCCn1ccnc1,–,inactive: 1.95%
FC(F)Oc1ccc(NC(=S)N2CCN(Cc3ccccc3)CC2)cc1,"inconclusive: 23.9 µM [inhibitor, single point]",–
COc1ccc(-c2nc(SCC(=O)NCc3ccco3)c(-c3ccccc3)[nH]2)cc1OC,"inconclusive: 37.9 µM [inhibitor, partial curve, poor fit]",–
COc1ccc(-c2noc(N3CCC(C(=O)Nc4ccc(OC)cc4OC)CC3)n2)cc1,"inconclusive: 19 µM [inhibitor, partial curve, poor fit]",–
O=C(Cc1ccccc1)NC(=S)Nc1ccc(OC(F)F)cc1,"inconclusive: 37.9 µM [inhibitor, partial curve, poor fit]",–
Clc1ccc(SCNc2ccccc2Cl)cc1,"inconclusive: 37.9 µM [inhibitor, partial curve, poor fit]",–
COC(=O)c1ccc(/C=N/OCC(=O)NC2CCCC(C)C2C)cc1 (stereo unspecified),–,inactive: -6.8%
CCOC(=O)Cn1cc(/C=N/N2C(=O)C3C4C=CC(C4)C3C2=O)c2ccccc21 (stereo unspecified),active: 15.1 µM,–
O=C(CSc1ccc(-c2ccccc2)nn1)N1CCCc2ccccc21,"inconclusive: 26.9 µM [inhibitor, single point]",–
COC(=O)c1sc(NC(=O)c2ccco2)nc1C,"inconclusive: 19 µM [inhibitor, partial curve]",–
CCOc1ccc(C(=O)OCc2cc(=O)n3nc(C(C)C)sc3n2)cc1,–,inactive: 2.33%
COc1cc2nc(N3CCN(C(=O)[C@@H]4CCCO4)CC3)nc(N)c2cc1OC,"inconclusive: 33.8 µM [inhibitor, partial curve, poor fit]",–
Cc1sc2nc(-c3ccco3)oc(=O)c2c1C,"inconclusive: 3.38 µM [inhibitor, full curve]",–
COc1ccc(-c2nnc(SCc3nnc(-c4ccc(Cl)cc4)o3)n2-c2ccccc2)cc1,"inconclusive: 23.9 µM [inhibitor, single point]",–
COc1cccc2cc(/C(=N/O)c3ccccc3)oc12,"inconclusive: 19 µM [inhibitor, partial curve]",–
Cc1ccc(C(=O)Nc2nccs2)cc1,active: 8.49 µM,–
COc1ccccc1N1CCN(C(=O)c2cc3c(=O)n(Cc4cccnc4)ccc3nc2C)CC1,–,inactive: 3.83%
O=C(Nc1ccccc1)C(Cl)C(=O)c1ccccc1 (stereo unspecified),"inconclusive: 15.1 µM [inhibitor, partial curve]",–
C/C(=C\c1ccccc1)C(=O)Nc1cc(C)on1,active: 15.1 µM,–
COC(=O)c1c(-c2cccs2)csc1NC(=O)COc1ccc(C(C)C)cc1,"inconclusive: 10.7 µM [inhibitor, partial curve, poor fit]",–

Structure (SMILES),Potency,"activity change, negative = inhibition"
O=C(CCCOc1ccc(Cl)cc1Cl)Nc1ncccn1,"inconclusive: 16.9 µM [inhibitor, partial curve, poor fit]",–
O=C(CCc1nnc(Cc2cccc(C(F)(F)F)c2)o1)NCCc1ccccc1F,"inconclusive: 16.9 µM [inhibitor, partial curve]",–
COCCn1c(C)cc(C(=O)COC(=O)CCS(=O)(=O)c2ccc(C)cc2)c1C,"inconclusive: 26.9 µM [inhibitor, single point]",–
Cn1c(=O)c2ncn(CC(=O)Nc3cccc(-c4nc5ccccc5s4)c3)c2n(C)c1=O,active: 3.79 µM,–
Cc1ccc(CN2CCSc3sccc3C2=O)cc1,–,inactive: 0.98%
N#Cc1ccc(/C=N/NC(=O)c2ccccc2F)cc1,"inconclusive: 23.9 µM [inhibitor, single point]",–
O=C(CSc1nccn1C1CCCC1)Nc1ccccc1,"inconclusive: 37.9 µM [inhibitor, partial curve, poor fit]",–
COc1ccc2cc3cc(C(=O)NC4CC4)sc3nc2c1,active: 0.675 µM,–
CCN(CC)C(=O)C1CCN(C(=O)c2cnn(-c3ccccc3)c2-n2cccc2)CC1,–,inactive: 3.09%
CCOC(=O)c1cnc2c(Cl)cccc2c1NCCCN1CCOCC1,"inconclusive: 21.3 µM [inhibitor, partial curve, poor fit]",–
O=C(O)c1cnn(-c2nc(-c3ccc(Cl)cc3)cs2)c1C(F)(F)F,"inconclusive: 37.9 µM [inhibitor, single point]",–
O=C(CSc1nnc(NC(=O)c2c(F)cccc2F)s1)NC1CCCCC1,"inconclusive: 37.9 µM [inhibitor, partial curve, poor fit]",–
N#Cc1ccc(NC(=O)COCc2cc(-c3ccc(F)cc3)on2)cc1,"inconclusive: 37.9 µM [inhibitor, partial curve, poor fit]",–
Cc1coc2c1c(C)cc1oc(=O)c(CC(=O)N[C@H](C(=O)O)C(C)C)c(C)c12,"inconclusive: 26.9 µM [inhibitor, single point]",–
COc1cc(/C=N/NC(=O)c2cccc(NC(=O)c3ccccc3Cl)c2)ccc1O,active: 15.1 µM,–
O=S(=O)(NC(=S)Nc1ccccc1)c1ccc(F)cc1,"inconclusive: 33.8 µM [inhibitor, partial curve, poor fit]",–
COc1ccc(-c2[nH]c(-c3ccc(C(=O)O)cc3)nc2-c2ccccc2)cc1,"inconclusive: 37.9 µM [inhibitor, partial curve, poor fit]",–
CCCc1ccc(OCc2nc(-c3ccc(NC(=O)c4cccs4)cc3)no2)cc1,active: 13.5 µM,–
COC(=O)c1cc(OC)c(OC)cc1NC(=O)Nc1ccc(OC)cc1,–,inactive: 2.53%
O=C1/C(=C/c2cccnc2)Oc2cc(OS(=O)(=O)c3ccccc3)ccc21,"inconclusive: 26.9 µM [inhibitor, single point]",–
CC(C)c1ccc(-c2noc(SCC(=O)N3CCCCC3)n2)cc1,active: 2.39 µM,–
CCOc1ccccc1CNC(=O)c1ccc(Cn2c(=O)c3cccn3c3cccnc32)cc1,–,inactive: -9.17%
CCOc1ccc(/C=C2\SC(=S)N(CCC(=O)Nc3ccc(C(=O)O)cc3)C2=O)cc1,active: 2.69 µM,–
CN1C(=O)/C(=C/c2ccc(O)c([N+](=O)[O-])c2)NC1=S,"inconclusive: 37.9 µM [inhibitor, partial curve, poor fit]",–

Structure (SMILES),Potency,"activity change, negative = inhibition"
Cc1ccc(-c2csc(NC(=O)COC(=O)c3cccc(S(=O)(=O)N4CCOCC4)c3)n2)cc1,active: 10.7 µM,–
Fc1ccc(-c2nc3c(Cl)cc(C(F)(F)F)cn3c2Cl)cc1,"inconclusive: 6.75 µM [inhibitor, partial curve]",–
CCn1c(=O)n(CC)c2cc(S(=O)(=O)Nc3ccccc3C)c(C)cc21,–,inactive: -0.517%
COc1ccc2c(c1)Cc1sc(NC(=O)c3cccc(Cl)c3)nc1-2,–,inactive: -1.6%
Cc1ccc(C(=O)CC(=O)c2ccccc2C)c(O)c1,"inconclusive: 21.3 µM [inhibitor, partial curve, poor fit]",–
O=C(c1ccc(CS(=O)(=O)c2c(Cl)cccc2Cl)o1)N1CCN(c2ccccn2)CC1,–,inactive: 7.7%
CCCC(=O)c1ccc(N2CCCCC2)c(F)c1,active: 13.5 µM,–
O=C1CCS/C(=N\N=C\c2ccc(Cl)cc2Cl)N1,active: 19 µM,–
COc1ccc(S(=O)(=O)Nc2cc(SCC(=O)O)c(O)c3ccccc23)cc1,"inconclusive: 19 µM [inhibitor, single point]",–
COC(=O)c1cccnc1-n1c(=O)c2cccnc2n(CC(=O)Nc2cccc(C(F)(F)F)c2)c1=O,–,inactive: -2.47%
O=C(CNC(=O)C1CCCCC1)OCC(=O)c1ccc(F)cc1,–,inactive: -0.0863%
CSc1cccc(NS(=O)(=O)c2ccc3[nH]cc(C(=O)N4CCCCCC4)c(=O)c3c2)c1,"inconclusive: 9.53 µM [inhibitor, partial curve]",–
Cn1c(-c2ccccc2)c(C(=O)CCl)c2ccccc21,"inconclusive: 26.9 µM [inhibitor, partial curve, poor fit]",–
O=C(CSc1nc(-c2ccccc2)cc(=O)[nH]1)Nc1ccccn1,"inconclusive: 19 µM [inhibitor, partial curve]",–
COc1ccc(NC(=O)c2ccco2)c(OC)c1,"inconclusive: 26.9 µM [inhibitor, partial curve, poor fit]",–
COc1ccccc1CNC(=O)c1cnn(-c2ccc(F)cc2F)c1C1CCN(C(=O)OC(C)(C)C)CC1,–,inactive: -0.431%
CC(Sc1nc(N)cc(N)n1)C(=O)NCCC1=CCCCC1 (stereo unspecified),–,inactive: 1.31%
COC(=O)CNC(=O)CCc1nnc(C2(c3ccc(Cl)cc3)CCC2)o1,"inconclusive: 16.9 µM [inhibitor, partial curve]",–
CCN(CC)S(=O)(=O)c1cccc(N=Nc2c(O)c3ccccc3oc2=O)c1,active: 26.9 µM,–
COc1ccc(C(=O)Nc2cc(C(C)=O)c(C)oc2=O)cc1,"inconclusive: 13.5 µM [inhibitor, partial curve]",–
O=C(O)/C=C/c1ccc2noc(-c3ccccc3)c2c1,"inconclusive: 21.3 µM [inhibitor, single point]",–
Nc1nc(-c2cccc(Br)c2)cs1,"inconclusive: 26.9 µM [inhibitor, single point]",–
Cc1ccc(C)c(NC(=O)C(NS(=O)(=O)c2ccc3c(c2)CCC(=O)N3)c2ccccc2)c1 (stereo unspecified),–,inactive: 5.67%
